Assay results published in US10577424.
Results are given in words; binding and its absence hold for the method and conditions named. Some binding calls cover weakened binding; strength is not graded here.

Amino acid sequences for entries named in this document (tags omitted). A change or cut given only in a name is not applied to a line headed by its entry. Residues count along the entry.
UniProt Q9D659, residues 33-191: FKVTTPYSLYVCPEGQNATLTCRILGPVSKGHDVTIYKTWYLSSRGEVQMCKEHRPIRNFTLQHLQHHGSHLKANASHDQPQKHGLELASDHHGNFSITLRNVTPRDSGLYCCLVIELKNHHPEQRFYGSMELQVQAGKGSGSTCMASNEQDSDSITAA

T1: monkey VISTA expressed on HEK293A cells (monkey (cynomolgus))
T1 sequence: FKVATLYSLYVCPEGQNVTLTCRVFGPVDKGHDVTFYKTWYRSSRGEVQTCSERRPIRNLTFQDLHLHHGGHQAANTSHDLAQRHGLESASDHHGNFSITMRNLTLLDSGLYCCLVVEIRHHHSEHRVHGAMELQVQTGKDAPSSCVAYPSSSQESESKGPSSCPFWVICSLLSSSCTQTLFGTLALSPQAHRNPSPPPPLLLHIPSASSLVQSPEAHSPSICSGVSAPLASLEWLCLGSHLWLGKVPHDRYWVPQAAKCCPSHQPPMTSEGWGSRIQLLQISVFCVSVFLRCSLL


Legend:
[1] = molecular target: T1, monkey VISTA expressed on HEK293A cells (monkey (cynomolgus)); assay: FACS on HEK293A cells (FIG. 5)
[2] = molecular target: mouse VISTA expressed on HEK293A cells (mouse) (UniProt Q9D659); assay: FACS on HEK293A/mouse VISTA cells, MFI [panel C]
[3] = molecular target: T1, monkey VISTA expressed on HEK293A cells (monkey (cynomolgus)); assay: FACS on HEK293A/monkey VISTA cells, MFI [panel B]
[4] = molecular target: mouse VISTA-his (Sino Biological, Cat #:511550-M08H) (mouse) (UniProt Q9D659); assay: ELISA, plate coated with mouse VISTA-his, OD450 [panel C]

| binding [1] | binding [3] | Binder | binding [2] | binding [4] |
| --- | --- | --- | --- | --- |
| binds | binds | 161E5-VH0VL0 (antibody, human IgG1, kappa, V domains shown) VH: QVQLVQSGAEVKKPGASVKVSCKASGYSFTDYYINWVRQAPGQGLEWMGRIFPGSGNAYYNEKFKDRVTMTRDTSTSTVYMELSSLRSEDTAVYYCARDDSFYGYWYFDVWGQGTTVTVSS VL: EIVMTQSPATLSVSPGERATLSCKSSQSVLYSSNQKNYLAWYQQKPGQAPRLLIYWASTRESGIPARFSGSGSGTEFTLTISSLQSEDFAVYYCHQYLSSYTFGGGTKVEIKR | no binding (tested: log 4 ng/ml (10000 ng/ml)) | no binding (tested: about log 4.3 ng/ml (about 20000 ng/ml)) |
| binds | binds | 161E5-VH3VL2 (antibody, human IgG1, kappa, V domains shown) VH: QVQLVQSGAEVKKPGASVKVSCKASGYSFTDYYINWVRQRPGQGLEWIARIFPGSGNAYYNEKFKDRATLTVDKSTSTAYMELSSLRSEDTAVYFCARDDSFYGYWYFDVWGQGTTVTVSS VL: NIMMTQSPATLSVSPGERATLSCKSSQSVLYSSNQKNYLAWYQQKPGQAPRLLIYWASTRESGVPDRFSGSGSGTEFTLTISSLQSEDFAVYYCHQYLSSYTFGGGTKVEIKR | no binding (tested: log 4 ng/ml (10000 ng/ml)) | no binding (tested: about log 4.3 ng/ml (about 20000 ng/ml)) |
| binds | binds | 161E5-VH2VL3 (antibody, human IgG1, kappa, V domains shown) VH: QVQLVQSGAEVKKPGASVKVSCKASGYSFTDYYINWVRQAPGQGLEWIARIFPGSGNAYYNEKFKDRATLTVDKSTSTAYMELSSLRSEDTAVYYCARDDSFYGYWYFDVWGQGTTVTVSS VL: NIMMTQSPATLSVSPGERATLSCKSSQSVLYSSNQKNYLAWYQQKPGQSPRLLIYWASTRESGVPDRFSGSGSGTEFTLTISSLQSEDFAVYYCHQYLSSYTFGGGTKVEIKR | no binding (tested: log 4 ng/ml (10000 ng/ml)) | no binding (tested: about log 4.3 ng/ml (about 20000 ng/ml)) |

Further lines, the binder ahead of its results:

| Binder | binding [1] | binding [3] | binding [2] | binding [4] |
| --- | --- | --- | --- | --- |
| 161E5-VH2VL2 (antibody, human IgG1, kappa, V domains shown) VH: QVQLVQSGAEVKKPGASVKVSCKASGYSFTDYYINWVRQAPGQGLEWIARIFPGSGNAYYNEKFKDRATLTVDKSTSTAYMELSSLRSEDTAVYYCARDDSFYGYWYFDVWGQGTTVTVSS VL: NIMMTQSPATLSVSPGERATLSCKSSQSVLYSSNQKNYLAWYQQKPGQAPRLLIYWASTRESGVPDRFSGSGSGTEFTLTISSLQSEDFAVYYCHQYLSSYTFGGGTKVEIKR | binds | binds | no binding (tested: log 4 ng/ml (10000 ng/ml)) | no binding (tested: about log 4.3 ng/ml (about 20000 ng/ml)) |
| 161E5-VH3VL3 (antibody, human IgG1, kappa, V domains shown) VH: QVQLVQSGAEVKKPGASVKVSCKASGYSFTDYYINWVRQRPGQGLEWIARIFPGSGNAYYNEKFKDRATLTVDKSTSTAYMELSSLRSEDTAVYFCARDDSFYGYWYFDVWGQGTTVTVSS VL: NIMMTQSPATLSVSPGERATLSCKSSQSVLYSSNQKNYLAWYQQKPGQSPRLLIYWASTRESGVPDRFSGSGSGTEFTLTISSLQSEDFAVYYCHQYLSSYTFGGGTKVEIKR | binds | binds | no binding (tested: log 4 ng/ml (10000 ng/ml)) | no binding (tested: about log 4.3 ng/ml (about 20000 ng/ml)) |
